Test results taken from paper PMC4336329 (PLoS ONE, 2015).
Out of some 310,000 compounds screened, about 14,000 (4.5%) showed an effect of 50% or more. The effect is printed as a negative number. The list shows a part of the results.

Each molecule was assayed against human ether-à-go-go-related gene (hERG) potassium channel (human, UniProt Q12809) (assay: primary screen, population patch clamp on CHO cells stably expressing hERG).
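Also: peak tail current of the secondary pulse compared with the same well before compound.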

human ether-à-go-go-related gene (hERG) potassium channel, sequence (Q12809 whole entry, looked up): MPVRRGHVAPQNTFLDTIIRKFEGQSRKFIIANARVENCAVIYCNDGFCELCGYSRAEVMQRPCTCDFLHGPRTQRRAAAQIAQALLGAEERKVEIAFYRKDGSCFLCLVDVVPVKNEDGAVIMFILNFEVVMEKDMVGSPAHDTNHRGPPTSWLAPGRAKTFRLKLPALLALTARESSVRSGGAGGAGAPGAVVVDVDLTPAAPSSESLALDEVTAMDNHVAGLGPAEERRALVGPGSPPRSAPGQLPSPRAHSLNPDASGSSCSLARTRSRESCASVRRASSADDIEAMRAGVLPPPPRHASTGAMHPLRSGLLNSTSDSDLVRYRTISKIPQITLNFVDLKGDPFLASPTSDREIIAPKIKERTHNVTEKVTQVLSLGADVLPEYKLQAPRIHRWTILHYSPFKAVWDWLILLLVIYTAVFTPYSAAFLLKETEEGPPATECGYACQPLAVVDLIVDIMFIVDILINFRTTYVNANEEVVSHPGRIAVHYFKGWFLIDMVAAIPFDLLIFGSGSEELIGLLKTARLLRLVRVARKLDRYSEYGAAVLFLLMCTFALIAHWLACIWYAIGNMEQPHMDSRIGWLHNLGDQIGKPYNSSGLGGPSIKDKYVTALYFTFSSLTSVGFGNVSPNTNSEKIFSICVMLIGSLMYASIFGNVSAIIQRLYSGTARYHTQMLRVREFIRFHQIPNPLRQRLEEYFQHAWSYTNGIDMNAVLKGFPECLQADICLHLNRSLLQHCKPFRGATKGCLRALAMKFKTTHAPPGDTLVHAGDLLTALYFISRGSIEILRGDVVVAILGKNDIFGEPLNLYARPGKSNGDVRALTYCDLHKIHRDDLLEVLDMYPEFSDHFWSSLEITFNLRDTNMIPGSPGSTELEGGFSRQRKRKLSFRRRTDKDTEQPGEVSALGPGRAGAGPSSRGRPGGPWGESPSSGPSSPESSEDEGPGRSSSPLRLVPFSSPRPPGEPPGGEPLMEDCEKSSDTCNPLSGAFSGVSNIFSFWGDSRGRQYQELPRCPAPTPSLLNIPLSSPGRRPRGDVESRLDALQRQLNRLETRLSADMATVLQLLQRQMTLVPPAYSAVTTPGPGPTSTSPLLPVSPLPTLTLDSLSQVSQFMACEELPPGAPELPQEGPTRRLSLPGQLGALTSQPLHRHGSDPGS

SMILES	hERG current change (%, negative = inhibition) at 10uM [%]
COc1ccc(N(CC(=O)Nc2nccs2)S(=O)(=O)c2c(C)[nH]c(=O)[nH]c2=O)cc1	10.9
O=C(NC1CC2CCCC(C1)N2C(=O)Nc1cccc(F)c1)C1CC1 (centres unmarked)	0.0121
COc1ccc(CNC(=O)Cc2ccc(-c3ccccc3)cc2)cc1OC	8.17
Clc1ccc(-c2nc3ncccn3c2Nc2ccc3c(c2)OCO3)cc1	20.7
Cc1ccc(Cn2nc(C)c(C=O)c2Cl)cc1	5.73
Cc1cc(C)c2c(ccc3cccc[n+]32)c1.[O-][Cl+3]([O-])([O-])[O-]	-16.2
CCOc1ccc(NC(=O)COc2ccc(OC)cc2)cc1	12.8
CCN1CCN(CCC(=O)Nc2cccc(C)c2)CC1.Cl	0.741
COC(=O)c1ccc(C(=O)OC)c(NC(=O)CSCc2ccc(Cl)cc2)c1	-2.64
CCc1cc2c(=O)n(CCC(C)C)c(=S)[nH]c2s1	10.8
Cc1ccc(C2(C)NC(=O)N(CC(=O)NCCC3=CCCCC3)C2=O)cc1 (centres unmarked)	10.6
CCN(CC)c1ccc(NC(=O)COC(=O)CCC(=O)c2ccc(F)cc2)cc1	0.0727
Cn1cc(C(=O)NCc2ccccc2)c2ccccc21	4.35
CC(NC(=O)Nn1cnnc1)(C(F)(F)F)C(F)(F)F	10.3
CCC(C)(C)C1CCC(NC(=O)N2CCN(c3ccccc3O)CC2)CC1 (centres unmarked)	-6.84
CCCCOc1ccccc1N1CCN(CCCN2C(=O)C3CCCN3C2=O)CC1.Cl (centres unmarked)	-56.7
O=c1c2ccccc2nc2n1C(CSc1ccc(Cl)cc1)CN2 (centres unmarked)	-8.43
Cn1ncc(Br)c1C(=O)N1CCCCCC1	18
CNc1oc(-c2cccs2)nc1S(=O)(=O)c1ccccc1	-18.7
COc1cccc(C(=O)Nc2ccc(NC(=O)C3C4C=CC(C4)C3C(=O)O)cc2)c1 (centres unmarked)	13.4
CCOc1cc(C=C2C(=O)NC(=O)NC2=O)ccc1OS(=O)(=O)c1ccccc1	-18
Cc1ccc(OCCC(=O)OCC(=O)Nc2cc(C)cc(C)c2)cc1	24.5
O=C(c1ccccn1)N1CCCC(N2CCN(Cc3ccc4c(c3)OCO4)CC2)C1 (centres unmarked)	4.4

SMILES	hERG current change (%, negative = inhibition) at 10uM [%]
COC(=O)CNC(=O)C12CC3CC(C1)CC(c1ccc(C)cc1)(C3)C2	12.9
Cc1cccc(Nc2ccccc2C(=O)O)c1C	2.88
COc1ccccc1NS(=O)(=O)c1cc(NC(=O)Nc2cccc(C)c2)ccc1N1CCCCC1	8
O=C1OCC(CO)(CO)N=C1NNc1ccc(Cl)c(Cl)c1	8.16
Cc1ccc(C(=O)Nc2ccccc2Sc2ccccc2)cc1	16.9
Cl.N=c1n(CCO)c2ccccc2n1CCN1CCCCC1	6.77
COc1ccccc1-n1c(SCC(=O)N2CCOCC2)nc(O)cc1=O	18.3
Cc1occc1-c1nnc(SCC(=O)c2c(N)n(C3CC3)c(=O)[nH]c2=O)n1C	-11.1
COc1ccc(C2C(C(=O)NCc3ccco3)CCC(=O)N2c2ccc(OC)cc2)cc1 (centres unmarked)	9.48
C/C(=N\N=c1/sc2ccccc2n1C)c1ccccn1	-6.62
C/C(=N\Nc1ccc([N+](=O)[O-])cc1)c1ccc2c(c1)OCO2	2.82
NS(=O)(=O)c1ccc(N/N=C/C=C/c2ccccc2[N+](=O)[O-])cc1	10.1
COCCN1C(=O)Cc2c1nc(N)c1c(N)nc(N3CCN(c4ccc(F)cc4)CC3)c(C#N)c21	-11.3
Fc1ccc(NC(=S)N2CCCC2)cc1	-1.37
O=c1cc(-c2ccc(O)cc2)oc2c(C3O[C@H](CO)[C@@H](O)[C@H](O)[C@H]3O)c(O)cc(O)c12 (some centres unmarked)	17.8
O=C(Oc1cccc(Nc2ncnc3ccccc23)c1)c1cccnc1	-3.78
COc1ccc(NC(=O)C(C)N2c3cccc4cccc(c34)S2(=O)=O)cc1OC (centres unmarked)	-3.78
O=C(Cn1c(=O)n(CC2CCCO2)c(=O)c2ccccc21)c1ccc(Cl)c(Cl)c1 (centres unmarked)	-16.4
CC(C)N1CC(C(=O)Nc2ccc(Cl)c(Cl)c2)CC1=O (centres unmarked)	9.54
Cc1ccc(-n2ccnc2SCC(=O)N(CC(C)C)C2CCS(=O)(=O)C2)c(C)c1 (centres unmarked)	-9.82
CCCCNC(=O)C1c2cc(OC)c(OC)cc2C(=O)N(C)C1c1ccc(OC)cc1 (centres unmarked)	3.21
Cc1cccc(C)c1NC(=O)C1c2cccc[n+]2CC(=O)N1Cc1cccs1.[I-] (centres unmarked)	4.89
CCCC(/C=C/c1ccc(OC(C)=O)cc1)=C1/c2ccccc2C(=O)N1c1ccccc1	14.6

SMILES	hERG current change (%, negative = inhibition) at 10uM [%]
NC(=O)c1ccccc1NC(=O)CSc1nc2ccccc2c(=O)[nH]1	20.9
CC(C(=O)NC1CCCC1)N(C(=O)c1snc(C(N)=O)c1N)c1ccc2c(c1)OCCO2 (centres unmarked)	-19.3
COc1ccccc1C(=O)Nc1ccc(N2CCN(S(C)(=O)=O)CC2)cc1	-7.79
CC1=CC2=NC(=O)/C(=C\c3cn(C)c4ccccc34)C(=N)N2O1	-0.356
COC(=O)c1cc(Cl)c(NC(=O)c2ccco2)cc1OC	12
Cc1nn(-c2ccccc2)c(N)c1C(c1ccccc1)c1c(C)nn(-c2ccccc2)c1N	-11
COc1ccc(CCNC(=O)c2ccc(Br)cc2)cc1	11.5
c1ccc2[nH]c(CSc3nc4ccccc4s3)nc2c1	-23.1
COC(=O)c1ccc(=O)n(Cc2ccc3c(c2)OCO3)c1	7.31
COc1cccc(OCc2nnc(SC)n2C)c1	-7.06
NC(=O)N1c2ccccc2CC(=O)c2ccccc21	-1.16
CCOC(=O)c1sc(NC(=S)NC(=O)c2cccc(Cl)c2)c(C(=O)OCC)c1C	-5.05
Cn1cc(CCCC(=O)NCc2ccccc2)c2ccccc21	-3.54
O=C(Nc1ccc(OC(F)(F)F)cc1)C1CCCN(S(=O)(=O)c2cnc[nH]2)C1 (centres unmarked)	10.4
COc1ccc(CC(=O)OCn2nnc3ccccc3c2=O)cc1	-1.18
CC(=O)N1N=C(c2ccncc2)CC1c1ccccc1O (centres unmarked)	11.7
CSCCC(NC(N)=O)C(=O)Nc1ccc(F)c(Cl)c1 (centres unmarked)	-6.51
S=C(c1ccc(-c2ccc(Br)cc2)o1)N1CCCCC1	17
O=C(Nc1ccc(C2CC2(Cl)Cl)cc1)c1ccccc1Br (centres unmarked)	6.07
COc1ccc(OC)c(N(CC(=O)NCCSCc2ccco2)S(=O)(=O)c2ccccc2)c1	-69.2
CCc1cccc(C)c1NC(=O)C1CN(S(=O)(=O)c2ccccc2)CCN1S(=O)(=O)c1ccccc1 (centres unmarked)	-13
O=C(N/N=C/c1ccco1)c1cccc(N2Cc3ccccc3C2)c1	2.18
O=C(C1CC1(c1ccccc1)c1ccccc1)N1CCOCC1 (centres unmarked)	1.5

SMILES	hERG current change (%, negative = inhibition) at 10uM [%]
Cc1noc(C)c1C(=O)N1CCc2ccccc2C1	12.2
COc1cccc(C2c3[nH]c4ccccc4c3CCN2Cc2cccn2-c2ncccn2)c1 (centres unmarked)	-76.1
CSCCC(NC(=O)c1ccccc1Cl)C(=O)N1CCCCC1 (centres unmarked)	4.79
Cc1cccc(OCc2nnc(SCC(=O)N(c3ccccc3)C3CCS(=O)(=O)C3)o2)c1 (centres unmarked)	-48.7
CCN(CC)C(=O)N(CC)Cc1ccccc1	8.76
COc1ccccc1/C=N/N1CCN(c2ccc(Cl)cc2)CC1	23.1
CCCOc1ccc(C(=O)OCCN2CCCCC2)c(O)c1.Cl	-58.7
CC(NC(=O)c1cccs1)C(=O)NC1=NCCS1 (centres unmarked)	1.3
CC1CCc2nc3ccc(S(=O)(=O)N4CCC(C(=O)N5CCCCC5)CC4)cc3c(C(=O)O)c2C1 (centres unmarked)	10
COc1ccc(C2=NOC3(CC(=O)N(c4ccc(F)cc4)C3=O)C2)cc1 (centres unmarked)	15.5
O=C(NCc1ccccn1)c1cn(-c2ccccc2)nc1-c1ccc(Cl)cc1	-1.67
CCOC(=O)c1nc(N)sc1C(=O)OCC	13.6
COc1ccc(NC(=S)Nc2ccc(OCc3ccccc3)cc2)cc1OC	9.06
COc1ccc(OC)c(NC(=O)[C@@]2(CC(=O)O)CC(/C=C/c3ccccc3)=NO2)c1	22.1
CC(C)N(CCn1c(=S)[nH]c2ccccc2c1=O)C(C)C	-40
COc1cccc(Nc2ncnc3c2cnn3-c2cccc(C)c2)c1	1.03
CCC(C(=O)OC(C)C)c1ccc2ccccc2c1 (centres unmarked)	7.86
COc1ccc(Nc2nc(-c3ccccc3)cs2)cc1	1.45
COc1ccc(C(=O)OCCNC(=O)c2c(Cl)nc3ccccn23)cc1.Cl	-6.58
CC(C)[C@]1(c2ccccc2)ON(c2ccccc2C(F)(F)F)C1=O	1.77
